Assay results: PubChem BioAssay AID1508623 (National Center for Advancing Translational Sciences (NCATS), 2021)
Screen size: about 48,000 compounds; about 450 (0.94%) were called active. The inconclusive results got no clear call from the source; some entries with a clear call stand among them for comparison. Calls come from the whole dose curve; as a rule, active = well fitted inhibition curve with a large enough effect; inconclusive = small, poorly fitted or top-dose-only effect; inactive = no such curve, though single readings can be large or run the other way. Where the call is inconclusive, the potency comes from a doubtful curve fit.

Assay: Primary qHTS for Identification of Small Molecule Inhibitors of Huntingtin Promoter Activity; note: nearly all actives have a fitted effect of over 50% in size
Details: HEK293 HTT promoter firefly luciferase reporter (activity 0% = vehicle and -100% = no light), 24 h; series mostly up to 57.5 µM
Summary of the method: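 HEK293 Fluc reporter, 2,500 cells/well, 24 h pre-culture; cpds up to 57.5 uM final, 24 h 37 degrees C; Dual-Glo, 10 min RT; normalized vehicle = 0%, zero RLU = -100%.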
Potency is the fitted concentration of half-maximal effect; tags give direction and shape of the fitted curve.

Question: With CCOC(=O)C1=C(CN2CCN(c3cc(C)ccc3C)CC2)NC(=O)NC1c1ccccc1 (stereo not given) as the compound, how does the Potency read?
Answer: inconclusive: 31.6 µM [inhibitor, partial curve, poor fit]

Question: Which Potency does the source give for CCOC(=O)c1cc(-c2ccc(C)cc2)n(CC(=O)Nc2ccc(OC)c(Cl)c2)c1C here?
Answer: inconclusive: 20 µM [inhibitor, partial curve, poor fit]

Question: For CCc1ccc2oc(C(=O)NCCc3ccc(OC)c(OC)c3)cc(=O)c2c1, which Potency is on record?
Answer: inconclusive: 20 µM [inhibitor, partial curve, poor fit]

Question: With COc1cccc(CN2C(=O)C3(SCC(=O)N3c3cc(C)cc(C)c3)c3ccccc32)c1 (stereo not given) as the compound, how does the Potency read?
Answer: inconclusive: 28.2 µM [inhibitor, partial curve, poor fit]

Question: For COc1ccc(S(=O)(=O)Nc2cc(-c3cn4cccc(C)c4n3)ccc2C)cc1C, which Potency is on record?
Answer: inconclusive: 39.8 µM [inhibitor, partial curve, poor fit]

Question: For O=C(NCc1ccccc1)c1cccc(NC(=O)N2CCSc3ncccc32)c1, which Potency is on record?
Answer: inconclusive: 17.8 µM [inhibitor, single point]

Question: For O=C(Cn1c(=O)oc2cc(S(=O)(=O)NCc3ccccc3)ccc21)NCc1ccc(F)cc1, which Potency is on record?
Answer: inactive

Question: For O=C(Cn1nc(C(F)(F)F)c2c1CCCC2)Nc1ccc(F)c(Cl)c1, which Potency is on record?
Answer: inconclusive: 35.5 µM [inhibitor, single point]

Question: With Cc1c(NC(=O)c2cc3ccccc3o2)cccc1-c1nc2ccccc2o1 as the compound, how does the Potency read?
Answer: inconclusive: 17.8 µM [inhibitor, partial curve]

Question: With COc1ccc(OC)c(NC(=O)Cn2cc(C(=O)c3cccs3)c3ccccc32)c1 as the compound, how does the Potency read?
Answer: inconclusive: 22.4 µM [inhibitor, partial curve, poor fit]

Question: For CCC(=O)N1CCc2cc(CNS(=O)(=O)c3ccc(Cl)s3)ccc21, which Potency is on record?
Answer: inconclusive: 20 µM [inhibitor, single point]

Question: For Cc1ccc(C)c(N2CCN(C(=O)C3CCN(Cc4nc(-c5cccc(Cl)c5)oc4C)CC3)CC2)c1, which Potency is on record?
Answer: inconclusive: 6.31 µM [inhibitor, full curve, poor fit]

Question: For Cc1ccc(C2c3[nH]c4ccccc4c3CCN2C(=O)c2ccc(N(C)C)cc2)cc1 (stereo not given), which Potency is on record?
Answer: inconclusive: 14.1 µM [inhibitor, partial curve, poor fit]

Question: With Cc1ccc2oc(C(=O)Nc3c(C(=O)c4ccc(C)c(F)c4)oc4ccccc34)cc(=O)c2c1 as the compound, how does the Potency read?
Answer: inconclusive: 0.178 µM [inhibitor, partial curve, poor fit]

Question: With COc1ccc(CNc2nc(-c3ccc(OC)c(OC)c3)cc(C(F)(F)F)n2)cc1 as the compound, how does the Potency read?
Answer: inconclusive: 39.8 µM [inhibitor, partial curve, poor fit]
